From PubChem BioAssay (NCI)
“And” between values parts separate entries of the source, which are not always exact repeats. Equal entries are not always repeated.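 Step 1: Grow cells in 96-well plates. Step 2: Expose to compound for 48 hours at 5 concentrations. Step 3: Interpolate endpoints linearly; if unreached, use highest concentration. GI50: concentration for 50% inhibition of growth. TGI marks complete inhibition of growth.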

The compounds below were run on NCI-H322M lung (assay: growth of human tumour cells (NCI), 48 h).

Structure (SMILES) | TGI | GI50
Cc1ccc(/C=C2\CN(C)CC3=C2OC(N)=C(C#N)C3c2ccc(C)cc2)cc1 (stereo unspecified) | > 68.2 µM | –
CCCN1C(=O)C/C(=C\C(C)=O)Nc2ccccc21 | > 100 µM | –
CCOC(=O)c1cc2cc(N(C(C)=O)C(C)=O)ccc2s1 | 95.2 µM | –
CCN1C(=O)C/C(=C\C(C)=O)Nc2ccccc21 | > 100 µM | –
Oc1ccc2ccccc2c1C=NCCCN=Cc1c(O)ccc2ccccc12 | 81.6 µM | 22.2 µM
CCOC(=O)C1(C(=O)OCC)C[C@]23OCCC(=O)[C@H]2[C@H]2C(=O)OC(C)(C)O[C@]23C1 | > 100 µM | –
CSc1ccc2c(cc1=O)[C@@H](NC(C)=O)CCc1cc(O)c(O)c(O)c1-2 | > 100 µM | –
COC(=O)C1(C)C=C(Nc2ccccc2)C(=O)N1c1ccccc1 (stereo unspecified) | > 100 µM | –
Oc1cccc2c1NC1=C(CCC/C1=C\c1ccccc1)C2 | > 100 µM | –
O=C1c2ccccc2-c2c1c1ccccc1c(=O)n2CCCNCCCn1c2c(c3ccccc3c1=O)C(=O)c1ccccc1-2 | 16.9 µM | 7.63 µM
CCCc1c2c([nH]c(=O)c1C)C(=O)c1[nH]c(=O)c(C)c(CCC)c1C2=O | 52.7 µM | –
Nc1ccccc1C#CC#Cc1ccccc1N | 42.8 µM | 21.5 µM
COc1cc2oc(=O)cc(C)c2cc1[N+](=O)[O-] | > 100 µM | –
COc1ccc(C(=O)/C=C/c2ccc(O)c(O)c2F)c(OC)c1 | 17.9 µM and 16.9 µM | 4.14 µM
CC(C)(C)[Si](C)(C)OCC1CCC(n2cnc3c(NC(=O)c4ccccc4)ncnc32)O1 (stereo unspecified) | 36.8 µM | –
Cc1[nH]c(=O)[nH]c(=O)c1N(CCF)CCCl | 1020 µM and 1620 µM and 1520 µM | 282 µM and 400 µM
Nc1c(C(=O)Nc2ccccc2)sc2nc3c(cc12)CCCCCC3 | 24.9 µM | 2.31 µM
CC/C=C\C[C@H](O)C/C=C1/C(=O)C=C[C@@H]1C/C=C\CCCC(=O)NC(C)C | 12.2 µM | 2.81 µM
COc1c2c(c(OC)c3c1c(=O)c1ccccc1n3C)OCO2 | > 100 µM | –
Cc1ccc(NC(c2ccccc2)c2ccc3cccnc3c2O)cc1 (stereo unspecified) | 29.9 µM | –
O=C(/C=C/c1ccco1)c1ccc(Nc2nc(Nc3ccc(F)cc3)nc(Nc3ccc(Cl)cc3)n2)cc1 | > 35.1 µM | 1.46 µM
C=CC1(C)CCC(C(C)C(=O)C(C=C(C)C)OC(C)=O)C12C(=O)Oc1ccccc1C2=O (stereo unspecified) | > 100 µM | –
Cc1cc2nc3n[nH]c(N)c3nc2cc1C | > 100 µM | –
CC(Cn1c2c3ccccc3ccc2c2oc(=O)c3ccccc3c21)N(C)C (stereo unspecified) | > 100 µM | –
S=c1[nH]nc(COc2ccc3c(c2)CCCC3)n1/N=C/c1ccc(Cl)cc1 | 37.3 µM | –

Structure (SMILES) | TGI | GI50
CC(=O)OCC1OC(On2ccccc2=S)C(OC(C)=O)C(OC(C)=O)C1OC(C)=O (stereo unspecified) | > 100 µM | –
CN(C)CCCNc1c(O)c2c(c(O)c1Cl)C(=O)C=CC2=O | 3.19 µM | –
O=C(c1ccccc1)c1ccc(C(c2c(O)c3ccccc3oc2=O)c2c(O)c3ccccc3oc2=O)cc1 | 51.4 µM | –
CCNc1nnc(CSc2nc(-c3ccccc3)c(-c3ccccc3)[nH]2)s1 | 53.6 µM | –
Cn1ncc(=S)[nH]c1=S | > 100 µM | –
CC1=C(/C=C/C(C)=C/C=C/C(C)=C/C(=O)OCC2OC(n3cc(F)c(=O)[nH]c3=O)CC2OC(=O)/C=C(C)/C=C/C=C(C)/C=C/C2=C(C)CCCC2(C)C)C(C)(C)CCC1 (stereo unspecified) | > 100 µM | –
CC[C@@H]1C[C@@H]2CN3CCc4c([nH]c5ccc(OC)cc45)C(COC(=O)c4ccc(OC)c(OC)c4)(C2)C13 | > 100 µM | –
Cc1ccc(Nc2nc(=S)[nH]c3[nH]ncc23)cc1 | > 100 µM | –
CCC/C(=N\NC(=S)N1CCN(c2ccccn2)CC1)c1ccccn1 | 1.25 µM and 1.65 µM | 0.0326 µM
CC(C)(C)NNC(=O)/C(=C/c1ccc(Oc2ccc(Cl)c(Cl)c2)cc1)NC(=O)c1ccccc1 | > 100 µM | –
COc1ccc(OCC(=O)O)c2c1CCC(C(C)C)C2=O (stereo unspecified) | > 100 µM | –
O=C1C2C(C(=O)N1O)N(Cc1ccccc1)C(=O)N2Cc1ccccc1 (stereo unspecified) | > 100 µM | –
COc1cc(NS(C)(=O)=O)ccc1NCc1cnc2ccc3[nH]c(C)ccc3c12 | > 100 µM | –
COc1ccc(-c2ccc(C3CC(c4ccc(O)cc4)=NN3)o2)c([N+](=O)[O-])c1 (stereo unspecified) | > 100 µM | 31.8 µM
Cn1cc(C(=O)c2nccc3c2cnc2ccccc23)ccc1=O | > 100 µM | –
CCCC1NC(=O)C(CC(C)C)NC(=O)c2cccc(n2)C(=O)NC(CC(C)C)C(=O)NC(CCC)C(=O)NC(C(=O)OC)CCCCNC1=O (stereo unspecified) | > 100 µM | –
C[C@]12CC[C@@H]3c4ccc(O)cc4CC[C@H]3[C@@H]1C/C(=C\c1ccc([N+](=O)[O-])cc1)C2=O | > 100 µM | –
CC(=O)N1CCC2(C=Nc3ccccc32)CC1 | > 100 µM | –
O=C1NC(=O)C(C(=O)C(=O)Nc2ccc(Br)cc2)C(=O)N1 | > 100 µM | –
O=[N+]([O-])c1cnc(Sc2ccncn2)c([N+](=O)[O-])c1 | > 100 µM | > 100 µM
NC(=S)/N=C/c1c(O)c2ccccc2oc1=O | > 100 µM | –
c1ccc2c(c1)ccc1nc(-c3ccc4c(c3)OCO4)c3c(c12)CCCC3 | > 100 µM | –
NCc1ccc(-c2ccc(-c3ccc(-c4ccc(CN)s4)s3)s2)s1 | > 100 µM | –
CC1=C2C(O)C(C(C)C(=O)NCC(C)C)CCC2(C)C=CC1=O (stereo unspecified) | > 100 µM | –
COc1cccc(N2C(=O)c3c(c4[nH]c5ccccc5c4c4ccc(C(C)(C)C)cc34)C2=O)c1 | > 100 µM | –

Structure (SMILES) | TGI | GI50
COc1ccc(C(=O)Cn2c(C(=O)c3ccc(OC)cc3)nc3ccccc32)cc1 | > 100 µM | > 37.8 µM
c1ccc(COc2ccc(CC3SCCCS3)cc2)cc1 | > 100 µM | –
O=P(c1ccccc1)(c1ccccc1)C1CC=C(c2ccccc2)C2(CCCC2)C1 (stereo unspecified) | > 100 µM | –
C=C[C@@H]1OC(=O)O[C@H]1CO | > 100 µM | –
CCCCCCCCCCCCN1C(C)=CS/C1=C\C=C\c1scc(C)[n+]1CCCCCCCCCCCC | 44.2 µM | 3.49 µM
O=C(Nc1ccc(Cl)c(C(F)(F)F)c1)C(=O)C(C(=O)/C=C/c1ccccc1)C1OC(=O)c2ccccc21 (stereo unspecified) | > 100 µM | –
Cc1ccc(S(=O)ON2CCC(C(=O)O)(c3ccccc3)CC2)cc1 (stereo unspecified) | > 100 µM | –
CC1=CC=NN2C(=O)[C@H](C)C2C1 (stereo partly specified) | > 100 µM | –
COc1ccc2c(c1)C(N)CC2=O (stereo unspecified) | > 100 µM | –
OCCN(CCO)N=Nc1ccc(-c2nc3ccccc3[nH]2)cc1 | > 100 µM | 39.2 µM
COc1cc(/C=C(/C)[N+](=O)[O-])ccc1O | 8.89 µM and 13.3 µM | 4.19 µM and 3.29 µM
CN(C)c1ccc(-c2cc(=O)c3ccccc3[nH]2)cc1 | > 100 µM | –
Clc1ccc(-c2nn3c(CCCCCCCCc4nnc5sc(-c6ccc(Cl)cc6)nn45)nnc3s2)cc1 | > 84.7 µM | –
O=c1[nH]c2ccc(C(F)(F)F)cc2nc1-c1ccccc1 | > 100 µM | –
CCOC(=O)CC(=O)NC1CC2CCC1(C)C2(C)C (stereo unspecified) | > 100 µM | –
CCCCCCCCCOC(=O)c1cnc(Cl)cn1 | 30.9 µM | –
CCN(CC)C(=S)SS(=O)(=O)c1ccccc1C(=O)O | > 100 µM | –
C=C1C(=O)O[C@@H]2[C@H]3O[C@]3(C)CCC=C(C)CC[C@@H]12 | 55.3 µM | –
Cc1cc2c(cc1C)NC(=O)C(NC(=O)/C=C/c1ccccc1)C=N2 (stereo unspecified) | > 100 µM | –
CN1CCN(Cc2ccc(-c3cc4ncnc(Nc5ccc(OCc6cccc(F)c6)c(Cl)c5)c4s3)o2)CC1 | 8.08 µM | 3.78 µM
S=c1ssc2c3ssc(=S)c3n(Cc3ccccc3)c12 | > 100 µM | –
CCCCCCCCCCCCCS(=O)(=O)O | > 100 µM | –
CCCCCCCCC[C@@H]1C[C@@H]2CCC3C(C(=O)OC)=C(C)NC(=N1)N32 (stereo partly specified) | 30.4 µM | –
O=C(Cc1nc2ccccc2s1)C(=O)Nc1ccc(Cl)cc1 | > 100 µM | –
CCN(CC)CCCN(c1cc(OC)cc2nccnc12)S(=O)(=O)c1ccc(C)cc1 | > 100 µM | –
